According to patent US20050112748A1 (published 2005):

B1: GST-tagged RhoA loaded with GTPγS (enzyme)
chain: not shown
notes: Control of the pull-down assay, loaded with 1 mM GTPγS; the methods speak of 'the wild-type small GTPase' without naming RhoA; also called GTPγS-loaded RhoA; not shown: glutathione S-transferase (GST)-tag of the pGEX-2T vector (Amersham Biosciences)
B2: GST-tagged RhoA loaded with GDP (enzyme)
chain: not shown
notes: Same polypeptide as m18 but loaded with 1 mM GDP; also called GDP-loaded RhoA; not shown: glutathione S-transferase (GST)-tag of the pGEX-2T vector (Amersham Biosciences)

Target: T1, HA-tagged full-length N-WASP expressed in Balb/3T3 cells (UniProt Q95107 1-505)
T1 construct: also called HA-tagged N-WASP; not shown: hemagglutinin (HA)3-tag of the pEF-BOS/HA vector
T1 sequence (Q95107 whole entry): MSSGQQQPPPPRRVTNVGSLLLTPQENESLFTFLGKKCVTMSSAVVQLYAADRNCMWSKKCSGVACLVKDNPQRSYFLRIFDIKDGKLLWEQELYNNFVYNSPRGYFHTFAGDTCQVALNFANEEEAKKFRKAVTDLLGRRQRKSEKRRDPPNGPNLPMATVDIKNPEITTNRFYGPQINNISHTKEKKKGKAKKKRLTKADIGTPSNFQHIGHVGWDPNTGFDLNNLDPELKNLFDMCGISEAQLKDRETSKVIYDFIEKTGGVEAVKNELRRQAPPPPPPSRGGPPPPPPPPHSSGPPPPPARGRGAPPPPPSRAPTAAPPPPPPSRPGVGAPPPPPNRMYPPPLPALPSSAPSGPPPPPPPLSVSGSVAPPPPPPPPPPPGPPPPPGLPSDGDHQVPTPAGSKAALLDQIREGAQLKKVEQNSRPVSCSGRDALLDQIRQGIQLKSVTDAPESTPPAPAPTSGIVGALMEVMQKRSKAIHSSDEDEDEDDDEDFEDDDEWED
Experiment: GST pull-down from Balb/3T3 lysate, anti-HA immunoblot
From the text: Coding sequences of the wild-type small GTPase were ligated in-frame to a glutathione S-transferase (GST)-tag of pGEX-2T vector (Amersham Biosciences). The GST-tagged recombinant proteins were expressed in E. coli strain XL1-Blue and affinity-purified with glutathione-Sepharose 4B (Amersham Biosciences). The cDNA encoding full-length N-WASP was fused in-frame to the hemagglutinin (HA)₃-tag of pEF-BOS/HA vector. This recombinant plasmid was transfected to Balb/3T3 cells. Twenty-four hours after the transfection, the cells were lysed with RIPA buffer (150 mM NaCl, 50 mM Tris-HCl, pH 8.0, 1% Nonidet P-40, 0.5% Na deoxycholate, and 0.1% SDS) containing 1 mM dithiothreitol, 0.1 mM phenylmethylsulfonyl fluoride, and 4 mM MgCl₂ and centrifuged for 15 minutes at 16,000×g. […] The bound proteins were eluted with 5 mM glutathione in 50 mM Tris-HCl (pH 8.0), The eluted proteins were subjected to SDS-PAGE, and then HA-tagged N-WASP was detected by immunoblotting with anti-HA-tag polyclonal antibody (pAb) (MBL), horseradish peroxidase-conjugated goat anti-rabbit IgG (Bio-Rad) as a secondary antibody, and Renaissance western blot chemiluminescence reagent Plus (NEN Life Science Products).
Next, the binding of these Cdc42 subfamily proteins to N-WASP was assessed by pull-down assay. […]

Binder | binding result
B1 | no binding
B2 | no binding
